PubChem BioAssay AID686978 (National Center for Advancing Translational Sciences (NCATS), 2013)
The whole screen tested about 420,000 compounds, of which about 64,000 (15%) were called active. This list was built around the results that the source calls inconclusive (neither active nor inactive); the mix of calls is not that of the screen. Calls follow the shape of the dose curve; as a rule, active = well fitted inhibition curve with a large enough effect; inconclusive = small, poorly fitted or top-dose-only effect; inactive = flat fitted curve, though single readings scatter. No potency is given beside an inconclusive call; the fits are too rough.

assay: qHTS for Inhibitors of human tyrosyl-DNA phosphodiesterase 1 (TDP1): qHTS in cells in absence of CPT; conditions: DT40 Tdp1-/- hTDP1 cells, no CPT, ATP luminescence, 48 h; activity change, negative = growth inhibition: at 46.2 µM (top of the series); also: nearly all actives have a fitted effect of over 55% in size
In short: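 Chicken DT40 Tdp1-/- cells stably complemented with human TDP1 were seeded at 400 cells/well with DMSO in place of 20 nM camptothecin. After compound pinning, cells grew at least 48 hr at 37 °C; viability read by CellTiter-Glo luminescence.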
% is scaled to controls: 0 for no effect and ±100 for the full control effect; potency is read from the fitted curve at half-maximal effect; tags tell the direction and shape of the fitted curve.

| SMILES | activity change, negative = growth inhibition | Potency |
| --- | --- | --- |
| Cc1ccccc1NC(=O)Cc1nnc(SCC(=O)NC2CCCC2)n1C | inactive: 9.26% | – |
| COc1ccc(C(=O)Nc2ccccc2SCc2cc(=O)c3cccc(C)c3[nH]2)cc1 | – | inconclusive [inhibitor, partial curve] |
| Oc1csc(Cc2nc(-c3ccc4ccccc4c3)cs2)n1 | – | active: 14.6 µM |
| Cc1ccc(-c2cc(-c3nnc(SCC(=O)N(C)CCC#N)n3N)c3ccccc3n2)cc1 | – | inconclusive [inhibitor, single point] |
| COc1cc(CCC(=O)OCC(=O)Nc2ccc(C)cc2Cl)cc(OC)c1OC | inactive: 11.2% | – |
| COC(=O)CCS(=O)(=O)c1cc(Cl)ccc1Cl | inactive: -0.145% | – |
| CN1C(=O)C(C)(C)c2cc(S(=O)(=O)N3CCCC(C(=O)NCc4ccccc4Cl)C3)ccc21 (stereo unspecified) | – | active: 23.1 µM |
| Cc1cc(OCC(=O)NCc2ccncc2)c2c(C)c(C)c(=O)oc2c1 | – | inconclusive [inhibitor, single point] |
| CSc1nc(Sc2ccc(Cl)cc2)c2ccccc2n1 | – | inconclusive [inhibitor, partial curve] |
| O=C(Nc1ccccc1)N1CCC2(CC1)CCN(C(=O)c1ccco1)CC2 | – | inconclusive [inhibitor, single point] |
| Cc1ccc(C2(c3ccccc3)NC(=O)N(CC(=O)NC3CCS(=O)(=O)C3)C2=O)cc1C (stereo unspecified) | inactive: -5.09% | – |
| C=CCOc1cccc(CNc2ccc3[nH]c(=O)[nH]c3c2)c1 | – | inconclusive [inhibitor, single point] |
| C=CCN(C/C(=N\O)c1sc(C(=O)OCC)nc1C)c1cccc(Br)c1 | – | inconclusive [inhibitor, single point] |
| O=C(/C=C/c1ccccc1[N+](=O)[O-])Nc1cc(S(=O)(=O)N2CCOCC2)ccc1N1CCOCC1 | inactive: 3.17% | – |
| COc1ccc(N(C)C(=O)c2cnc(N3CCN(c4ncccn4)CC3)c3ccccc23)cc1 | – | inconclusive [inhibitor, single point] |
| CC(NC(=O)c1ccccc1)C(=O)N/N=C/c1cccc([N+](=O)[O-])c1 (stereo unspecified) | inactive: -10.3% | – |
| COc1cc(OC)cc(C2=Cc3ccccc3C(CC(C)=O)N2c2ccc(C#CC3(O)CCCCC3)cc2)c1 (stereo unspecified) | – | inconclusive [inhibitor, single point] |
| O=C(NCCN1CCOCC1)c1ccc(=O)n(Cc2ccc(Cl)cc2)c1 | inactive: 7.04% | – |
| CCOC(=O)N1CCN(C(=O)CSc2nc3c([nH]c4ccccc43)c(=O)n2CCOC)CC1 | – | active: 18.4 µM |
| CC(=O)c1ccc(NC(=O)CN2CCC(NC(=O)C3CCCCC3)CC2)cc1 | inactive: -22% | – |
| CN(CCOc1ccc(C[C@H](Nc2ccccc2C(=O)c2ccccc2)C(=O)O)cc1)c1ccccn1 | inactive: -6.46% | – |
| COc1cccc(C2C(C#N)=C(N)N(N(C)C)C3=C2C(=O)CCC3)c1 (stereo unspecified) | inactive: 10.3% | – |
| COc1ccc(OC)c(/C=C2\Cc3ccccc3C2=O)c1 | – | inconclusive [inhibitor, single point] |

| SMILES | activity change, negative = growth inhibition | Potency |
| --- | --- | --- |
| Cc1ccc(NC(=O)c2c(C)nn(-c3ccccc3)c2Cl)c(C)c1 | – | inconclusive [inhibitor, single point] |
| Cc1nc2cnc(Oc3cccc(Cl)c3)nc2n(CCc2ccccc2)c1=O | – | inconclusive [inhibitor, single point] |
| Cc1ccc(/C=N/Nc2cc(C)nc(N3CCOCC3)n2)cc1 | – | inconclusive [inhibitor, single point] |
| CCN(CC)c1ccc2c(c1)oc(=O)c1c(Cl)cc(=O)oc12 | – | active: 5.17 µM |
| Cc1cc(NC(=O)CS(=O)(=O)Cc2ccccc2)no1 | inactive: -19% | – |
| CN(C)C(CNC(=O)c1cc2ccccc2o1)c1ccccc1 (stereo unspecified) | inconclusive: -31.1% [inhibitor] | – |
| CCOc1ccc(OCC)c(NC(=O)Cn2c(C)nc3ccccc3c2=O)c1 | – | inconclusive [inhibitor, single point] |
| COc1cc(CC(=O)NCCc2ccc(OCc3ccccc3)cc2)c([N+](=O)[O-])cc1OC | – | inconclusive [inhibitor, single point] |
| COc1cccc(N2C(=O)CC(NNc3nc4ccccc4s3)C2=O)c1 (stereo unspecified) | inactive: 3.52% | – |
| O=C(Oc1cc(=O)oc2c1c(=O)n1c3c(cccc23)CC1)c1ccccc1 | – | inconclusive [inhibitor, single point] |
| CC(C)(C)[C@H]1C=C(C(=O)Nc2ccccc2)O[C@@H](OCCCCO)C1 | – | inconclusive [inhibitor, partial curve, poor fit] |
| COC(=O)c1ccc2nc(-c3ccc(Cl)cc3)c(CC3CCCCC3)n2c1 | – | active: 4.11 µM |
| CC(CN1CCOCC1)OC(=O)c1cccs1 (stereo unspecified) | inactive: 3.96% | – |
| CCCCN(C=O)c1c(CC)nc2c(OCCC)cccn12 | – | inconclusive [inhibitor, partial curve] |
| COC(=O)c1ccc(C2=NOC(C)(c3nnc(-c4cccc(Cl)c4)o3)C2)cc1 (stereo unspecified) | – | inconclusive [inhibitor, single point] |
| c1ccc(Cn2cc(CSc3ccccc3)nn2)cc1 | inactive: -22% | – |
| CCN1C(=O)[C@H]2[C@@H](c3ccc(C)cc3)N3C(=O)N(c4cccc(Cl)c4)C(=O)[C@@]3(CC(C)C)[C@H]2C1=O | inconclusive: -5.66% [inhibitor] | – |
| COc1ccc(-c2cn3nc(N4CCCC(C(=O)Nc5cccc(Cl)c5C)C4)sc3n2)cc1 (stereo unspecified) | – | active: 20.6 µM |
| COC(=O)Nc1ccc2ccc3c(NC(=O)OC)ccc4ccc1c2c43 | – | inconclusive [inhibitor, single point] |
| O=C(NCCC1CCCCN1S(=O)(=O)c1ccccc1)C(=O)Nc1ccccc1 (stereo unspecified) | – | inconclusive [inhibitor, single point] |
| CCOC(=O)[C@H]1[C@H]2COc3cc(OC)ccc3[C@@H]2N2C(=O)CN(Cc3ccccc3)C(=O)[C@@]12C | inactive: -23.1% | – |
| CCCSc1ncc(Cl)c(C(=O)NCc2ccc(OC)cc2)n1 | – | inconclusive [inhibitor, partial curve] |
| NC(=O)CCC(NS(=O)(=O)c1ccc(Cl)cc1)C(=O)NCC1CCCCC1 (stereo unspecified) | – | inconclusive [inhibitor, single point] |
